Common to all, as to test: microbe, parasite or virus in culture
The subject of one assay is HIV-1 Y188L RT mutant. The conditions noted are these: Human immunodeficiency virus 1, HeLa, read-out: IC50 against Y188L.
A further assay relates to HIV-1 Y181C RT mutant. Conditions: Human immunodeficiency virus 1, HeLa, read-out: IC50 against Y181C, HeLa cell assay.
For another assay, the system named is HIV-1 V106A RT mutant. Conditions: Human immunodeficiency virus 1, HeLa, read-out: IC50 against V106A, HeLa cell assay.
The subject of another assay is HIV-1 K103N RT mutant. Conditions: Human immunodeficiency virus 1, HeLa, read-out: IC50 against K103N, HeLa cell assay.

Where a name gives a salt, the structure may show the parent alone.

As a reminder, the IC50 is the concentration that inhibits the measured activity by half.

Turning to `CC#Cc1cc(C#N)cc(Oc2c(Cl)ccc(CNC(=O)c3[nH]cnc3Cl)c2F)c1` [Example 317, 4-chloro-N-[(4-chloro-3-{[3-cyano-5-(1-propyn-1-yl)phenyl]oxy}-2-fluorophenyl)methyl]-1H-imidazole-5-carboxamide], the IC50 in the assay with HIV-1 Y188L RT mutant, in the assay with HIV-1 Y181C RT mutant, in the assay with HIV-1 V106A RT mutant and with HIV-1 K103N RT mutant was < 10 nM each time.
In the case of `C[C@@H](O)C#Cc1cc(Cl)cc(Oc2c(Cl)ccc(CNC(=O)c3[nH]cnc3Cl)c2F)c1` [Example 319, 4-chloro-N-{[4-chloro-3-({3-chloro-5-[(3R)-3-hydroxy-1-butyn-1-yl]phenyl}oxy)-2-fluorophenyl]methyl}-1H-imidazole-5-carboxamide], the IC50 in the assay with HIV-1 Y188L RT mutant, in the assay on HIV-1 Y181C RT mutant, in the assay with HIV-1 V106A RT mutant and with HIV-1 K103N RT mutant was < 10 nM each time.
For the compound `N#Cc1cc(Oc2c(Cl)ccc(CNC(=O)c3[nH]c(N)nc3Cl)c2F)cc(C(F)F)c1` [Example 327, 2-amino-4-chloro-N-[(4-chloro-3-{[3-cyano-5-(difluoromethyl)phenyl]oxy}-2-fluorophenyl)methyl]-1H-imidazole-5-carboxamide trifluoroacetate], the IC50 in the assay on HIV-1 Y188L RT mutant, with HIV-1 Y181C RT mutant, in the assay with HIV-1 V106A RT mutant and in the assay with HIV-1 K103N RT mutant was < 10 nM throughout.
Take `CCNc1nc(Cl)c(C(=O)NCc2ccc(Cl)c(Oc3cc(Cl)cc(C#N)c3)c2F)[nH]1` [Example 362, 4-chloro-N-({4-chloro-3-[(3-chloro-5-cyanophenyl)oxy]-2-fluorophenyl}methyl)-2-(ethylamino)-1H-imidazole-5-carboxamide trifluoroacetate]: the IC50 in the assay with HIV-1 Y188L RT mutant, in the assay on HIV-1 Y181C RT mutant, with HIV-1 V106A RT mutant and in the assay with HIV-1 K103N RT mutant was < 10 nM each time.
Take `CNc1nc(Cl)c(C(=O)NCc2ccc(Cl)c(Oc3cc(Cl)cc(C#N)c3)c2F)[nH]1` [Example 363, 4-chloro-N-({4-chloro-3-[(3-chloro-5-cyanophenyl)oxy]-2-fluorophenyl}methyl)-2-(methylamino)-1H-imidazole-5-carboxamide trifluoroacetate]: the concentration for half-maximal inhibition (IC50) with HIV-1 Y188L RT mutant, in the assay with HIV-1 Y181C RT mutant, in the assay on HIV-1 V106A RT mutant and in the assay with HIV-1 K103N RT mutant was < 10 nM throughout.
Take `COc1cc(C#N)cc(Oc2c(Cl)ccc(CNC(=O)c3[nH]c(N)nc3Cl)c2F)c1` [Example 366, 2-amino-4-chloro-N-[(4-chloro-3-{[3-cyano-5-(methyloxy)phenyl]oxy}-2-fluorophenyl)methyl]-1H-imidazole-5-carboxamide trifluoroacetate]: the IC50 in the assay with HIV-1 Y188L RT mutant, in the assay with HIV-1 Y181C RT mutant, in the assay with HIV-1 V106A RT mutant and in the assay with HIV-1 K103N RT mutant was < 10 nM each time.
With `N#Cc1cc(Cl)cc(Oc2c(Cl)ccc(Cn3cnc4nc[nH]c4c3=O)c2F)c1` [Example 368, 3-chloro-5-({6-chloro-2-fluoro-3-[(6-oxo-6,7-dihydro-1H-purin-1-yl)methyl]phenyl}oxy)benzonitrile trifluoroacetate], the IC50 with HIV-1 Y188L RT mutant was 10 to 1000 nM; in the assay on HIV-1 Y181C RT mutant, < 10 nM; with HIV-1 V106A RT mutant, < 10 nM; in the assay with HIV-1 K103N RT mutant it was < 10 nM.
On to `N#Cc1cc(Cl)cc(Oc2c(Cl)ccc(Cn3cnc4cc[nH]c4c3=O)c2F)c1` [Example 369, 3-chloro-5-({6-chloro-2-fluoro-3-[(4-oxo-4,5-dihydro-3H-pyrrolo[3,2-d]pyrimidin-3-yl)methyl]phenyl}oxy)benzonitrile], for which the IC50 in the assay on HIV-1 Y188L RT mutant is 10 to 1000 nM; in the assay on HIV-1 Y181C RT mutant it was < 10 nM; with HIV-1 V106A RT mutant it was < 10 nM; in the assay on HIV-1 K103N RT mutant it was < 10 nM.
On to `C=CCc1cc(C#N)cc(Oc2c(Cl)ccc(Cn3cnc4nc[nH]c4c3=O)c2F)c1` [Example 373, 3-({6-chloro-2-fluoro-3-[(6-oxo-6,7-dihydro-1H-purin-1-yl)methyl]phenyl}oxy)-5-(2-propen-1-yl)benzonitrile], for which the IC50 in the assay with HIV-1 Y188L RT mutant, with HIV-1 Y181C RT mutant, with HIV-1 V106A RT mutant and with HIV-1 K103N RT mutant was < 10 nM throughout.
Regarding `N#Cc1cc(Oc2c(Cl)ccc(CNC(=O)c3[nH]cnc3Br)c2F)cc(C(F)F)c1` [Example 375, 4-bromo-N-[(4-chloro-3-{[3-cyano-5-(difluoromethyl)phenyl]oxy}-2-fluorophenyl)methyl]-1H-imidazole-5-carboxamide], the half-inhibitory concentration (IC50) in the assay with HIV-1 Y188L RT mutant, in the assay on HIV-1 Y181C RT mutant, in the assay with HIV-1 V106A RT mutant and with HIV-1 K103N RT mutant was < 10 nM each time.
On to `N#Cc1cc(Cl)cc(Oc2c(Br)ccc(CNC(=O)c3[nH]cnc3Br)c2F)c1` [Example 377, 4-bromo-N-({4-bromo-3-[(3-chloro-5-cyanophenyl)oxy]-2-fluorophenyl}methyl)-1H-imidazole-5-carboxamide], for which the IC50 in the assay on HIV-1 Y188L RT mutant, in the assay on HIV-1 Y181C RT mutant, in the assay on HIV-1 V106A RT mutant and in the assay with HIV-1 K103N RT mutant was < 10 nM each time.
For the compound `N#Cc1cc(Cl)cc(Oc2c(Br)ccc(CNC(=O)c3[nH]cnc3Cl)c2F)c1` [Example 378, N-({4-bromo-3-[(3-chloro-5-cyanophenyl)oxy]-2-fluorophenyl}methyl)-4-chloro-1H-imidazole-5-carboxamide], the IC50 with HIV-1 Y188L RT mutant, in the assay on HIV-1 Y181C RT mutant, in the assay on HIV-1 V106A RT mutant and with HIV-1 K103N RT mutant was < 10 nM throughout.
On to `N#Cc1cc(CN2CCOCC2)cc(Oc2c(Cl)ccc(CNC(=O)c3[nH]cnc3Cl)c2F)c1` [Example 383, 4-chloro-N-[(4-chloro-3-{[3-cyano-5-(4-morpholinylmethyl)phenyl]oxy}-2-fluorophenyl)methyl]-1H-imidazole-5-carboxamide], for which the IC50 in the assay with HIV-1 Y188L RT mutant, with HIV-1 Y181C RT mutant, in the assay with HIV-1 V106A RT mutant and with HIV-1 K103N RT mutant was < 10 nM each time.

Values taken from patent US8304419B2, “Chemical compounds” (priority 2007, dated 2012).
